Reference: the RNAGym collection of RNA variant scans (doi:10.1073/pnas.2313332121)
Variants at the background level are over-represented here.

B1: TPR 5TU (parent)
chain: GGAUCUUCUCGAUCUAACAAAAAAGACAAAUCUGCCACAAAGCUUGAGAGCAUCUUCGGAUGCAGAGGCGGCAGCCUUCGGUGGCGCGAUAGCGCCAACGUUCUCAACUAUGACACGCAAAACGCGUGCUCCGUUGAAUGGAGUUUAUCAUG

Variants of: B1
Test: polymerase ribozyme fitness, log enrichment relative to wild type (log ratio); higher = more active; in vitro selection for triplet polymerase activity
In short: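 Mutant libraries of both subunits of a heterodimeric triplet polymerase ribozyme were PCR-built, transcribed, and selected once in triplicate, with frozen incubation at −7 °C and capture of gel-excised extended constructs on streptavidin beads before RT-PCR. Illumina sequencing of input and output libraries was filtered to genotypes with ≥10 input reads and ≥1 read per output. Fitness is the logarithm of genotype enrichment over wild-type enrichment, using inverse-variance-weighted replicate averages. The logarithm is base 2.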

Variant	polymerase ribozyme fitness (log ratio)
U55C C57G G65C U82G C103A G126A	≤ -4.2
U56A C96U G100A U104G	≤ -4.2
U56A C57A C85U C87U U144A U146G	≤ -4.2
U55G C69U	-2.89
U55G A110G U127C	≤ -4.2
U55A U61A C85U C99G C108G	≤ -4.2
U55G A89U C132G	-3.98
U55A U56A U78C G83U A89U	-0.955
U55G C96A C105U	-0.496
U55A U90G U135C	≤ -4.2
U56A C125G	-1.56
U56A C69U C129U	-0.94
U56A C87G A89C A119U G141A	≤ -4.2
U55G U56A G94A A138G U151G	≤ -4.2
U55G G68U	-3.91
U55G G68A	-3.69
U55A U77A A98G	≤ -4.2
U56A C69U A73C A91C	≤ -4.2
U55G G68A C76U C85G C99G	≤ -4.2
U55G G84U A106G	-1.26
U56A A91U A121U U144A	≤ -4.2
U56A C85U G128U	-2.89
U55G U56A A60U G80A G88A A110C	≤ -4.2
U56A C85A C103G A122C	≤ -4.2

Variant	polymerase ribozyme fitness (log ratio)
U56A C95A	-0.487
U55G G100A G128A A150G	≤ -4.2
U56A A73G C76U	0.764
U56A A66G G68A G81C A89C	≤ -4.2
U55C C85A A91C G126A	-4.06
U56A A89G C99A	-1.89
U55G C93U	-1.83
U55G C93G	-4.19
U55G U56G C72G A119U G128C C132G	≤ -4.2
U55G C72U G136C	-3.74
U56A C93U U127C	-2.73
U56A C93U C95U C103A C105A	≤ -4.2
U56A C57A C85U C87U	-0.523
U55G C63A G71C C76A	≤ -4.2
U56A C79U G83A	≤ -4.2
U55G C108G G133U A142C	-4.19
U56A C79U C103G G141A	≤ -4.2
U56A C132G A137U	-4.03
U56A C79G A91G C105U U127G	≤ -4.2
U56A A110C	-3.84
U55G C72U	-0.349
U55A U56C G84U G92A A110G	≤ -4.2
U56A C75G C93A A98G A106C G141A	≤ -4.2
U55G G92C	-0.157

Variant	polymerase ribozyme fitness (log ratio)
U55G G92A	-3.13
U55A U56A A66C G70C C108U	≤ -4.2
U55G C87U U130C	-0.00301
U55G C63A C85U C103A	≤ -4.2
U56A C85U A91U C95U U104G U134C	≤ -4.2
U55A G141C	-0.199
U55G C87G C105G U148G U151C	≤ -4.2
U55G C93G C95U C114U A138G G143A	≤ -4.2
U56A C87A	≤ -4.2
U55G C87A G136C	≤ -4.2
U55C A98G A113U A142G	-2.98
U55G C75U	-0.769
U55G A89G G94A A119U	-1.9
U56A C76U G88U C129U A138U	≤ -4.2
U56A C79A C85U G92A C93G C96U	≤ -4.2
U55G C85U U90A U127C C132G	≤ -4.2
U55G G58C C76U G80A G88A C96G	≤ -4.2
U55A U82G C96G C116U G140C	-4.17
U56A C99U	-0.614
U55G C93U U101G	-0.936
U55C G68A A91G	≤ -4.2
U55G A60G G86A C93A U101G U102A A137U	≤ -4.2
U55G U56A C93A C114A	≤ -4.2
U55G C93A A98U A142U	-3.92

Variant	polymerase ribozyme fitness (log ratio)
U55A G126U G140U A142C	≤ -4.2
U55A G100C G126U G128C	≤ -4.2
U56A G58A C87G G133U	≤ -4.2
U55C C72U A150U	0.059
U55A G141A G143U U144G	≤ -4.2
U55G C85U C131U U134C	1.73
U55A G126C	1.42
U55G G80A C87U	-0.574
U56A C85A	-2.02
U55C G70A	-3.5
U55G C85A C118G C149G	≤ -4.2
U56A C57A C85G	-0.79
U56A A66C C69U G83U U135G	≤ -4.2
U56A C96U U145A G152A	-2
U55A U56A G58C U78A G92A	≤ -4.2
U55G A60C C87A U101C A107C G133U	≤ -4.2
U55G U61G C76U C87A U101G U134G G136U	≤ -4.2
U55A U78A C85U C93U	≤ -4.2
U55G C85A A91G A120U G141A	≤ -4.2
U55G G68A A73C C125U C132U	≤ -4.2
U55A U56G C75G	-4.19
U55A U101G A115G C123U G143C U148C	≤ -4.2
U56A C79G C85G	≤ -4.2
U56A C103A A110G U144G	-3.91

Variant	polymerase ribozyme fitness (log ratio)
U55G G62A G92U C96A	-3.44
U55G C69G U90C G92A A120U	≤ -4.2
U56A C79G C87G C96U A142G	≤ -4.2
U56A C72U C76U C85U	-1.17
U56A A60G	0.416
U55A U102C U127A A138G	≤ -4.2
U55G C103G A106G A107G U127G G141A U144G	≤ -4.2
U56A A89U U139C	≤ -4.2
U55G G83A U104G U127G G143C	≤ -4.2
U55A U82G U109C	≤ -4.2
U55G C118U	-1.23
U56A C96A G100C	≤ -4.2
U55A U56A G92U A97U A98G A110U	≤ -4.2
U56A C118G A150G	-2.41
U55A U61A C76G U77A G94C U146A	≤ -4.2
U56A C75A C96U U104C	≤ -4.2
U56A A73C G94C	-3.51
U56A C75A G136A U151G	≤ -4.2
U56A C87U A98U C116G	0.0809
U55G G83A	-0.31
U55A U56G C69U G80U C96G	≤ -4.2
U56A A60U C93A U109G A113U U139G U145C A147G	≤ -4.2
U55G G58U A64U G68U C79G C85U C93A G124C	≤ -4.2
U55G A115U A137C	≤ -4.2

Variant	polymerase ribozyme fitness (log ratio)
U55G A60G A73U C76G G86U	≤ -4.2
U55G U127G	-2.9
U55G U90A	≤ -4.2
U55G G133U	-4.16
U56A C75U A89C C95A C99G G126A	≤ -4.2
U55G C149A	≤ -4.2
U55G C96U C108A	≤ -4.2
U55G G58C G59U G67C U78A C95U A113G	≤ -4.2
U55A U56A G80U U111A	≤ -4.2
U56A C76U	0.105
U55A U56A C69U C79U G86A A91U A106C A121G C125U A142C	≤ -4.2
U56A A91U A119U	≤ -4.2
U55G G62A	-2.48
U55C G62A A64C C72G G140U U144A	≤ -4.2
U56A C95A C103G C132A U146A	≤ -4.2
U56A A91G C95U C105G A120G	-3.49
U56A C75A	≤ -4.2
U56A A73U C87G C99G	≤ -4.2
U55A G100U C125G	≤ -4.2
U56A C57U G59U C87A	≤ -4.2
U55G A89U A138G U151G	≤ -4.2
U55G G59U G67C U77A C96G C129U	≤ -4.2
U55G G83C U135A	-1.97
U55G G58C	-0.558

Variant	polymerase ribozyme fitness (log ratio)
U56A C149A	-3.67
U56A C85G C93G A107U U111G	≤ -4.2
U55G U90G A97G U135G	≤ -4.2
U55A U56A G59A	0.199
U56A C76U C87A A138G	≤ -4.2
U55G U82A U148C	-2.51
U55G C63U G81U C87G U102G C116G A150C	≤ -4.2
U55G G83U C95U A147C	-1.88
U55G G83C U135A G136A C149A	≤ -4.2
U55G G88U A113C A137G	≤ -4.2
U55G A60G A73U U127G	≤ -4.2
U55A U61G G92A A106C C123A G143C	≤ -4.2
U55G G81A G141C U146G	-2.62
U56A C69A G84A	-1.63
U55G C75G C76G G84U C118A U139C	≤ -4.2
U55A U90C C95U U146C C149A	≤ -4.2
U55A U77A G80C C103A A110G G126U	≤ -4.2
U55A U144C	0.176
U55G G83A C103U U135A	-2.23
U55G C96A C108G C116G A119C	≤ -4.2
U55A U56A C87G G141U	≤ -4.2
U55G G84A C118U	-0.685
U55G A91U A106G G117U	-4.18
